From a collection of fitness landscapes (doi:10.1016/j.celrep.2020.107928) come the findings set out here.

B1: Caulobacter ParB omega fusion; a variant is named by its letters at X, in order, B8GW30 (parent)
chain: MESVVVGEPGMSEGRRGLGRGLSALLGEVDAAPAQAPGEQLGGSREAPIEILQRNPDQPRRTFREEDLEDLSNSIREKGVLQPILVRPSPDTAGEYQIVAGERAWRAAQRAGLKTVPIMVRELDDLAVLEIGIIENVQRADLNVLEEALSYKVLMEKFERTQENIAQTIGKSXSHVANXMRLLXLPDEVQSYLVSGELTAXHARAIAAAADPVALAKQIIEGGLSVRETEALARKAPNLSAGKSKGGRPPRVKDTDTQALESDLSSVLGLDVSIDHRGSTGTLTITYATLEQLDDLCNRLTRGI

The full ranking holds about 81,000 sequences; the median of “one-hybrid fitness for binding NBS DNA” is about -0.1, and the highest 2% start at about 0.36. The list shows a part of the results. A value given as a limit tells only on which side of the number the result lay.

The variants in the assay derive from B1. Nature of the assay: one-hybrid fitness for binding NBS DNA (the Noc-binding site; scaled: cognate 1, non-cognate 0); higher = stronger binding. To be noted: with NBS DNA site. Put shortly: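 Bacterial one-hybrid selection in E. coli USO rpoZ- hisB- pyrF- with a HIS3 reporter carrying the site 19 bp from the promoter, screening Caulobacter ParB libraries with four specificity codons randomised (NNS). Cells grew 48 hours at 37°C on M9-minus-histidine plus 0.1 mM IPTG and 5 mM 3-AT. Plasmids before and after selection were Illumina-sequenced, three replicate libraries pooled, and variants under 10 reads dropped. Fitness is the log change in variant-to-wild-type read ratio, rescaled to cognate 1, non-cognate 0.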
Regarding DCMC, the “one-hybrid fitness for binding NBS DNA” value was no more than 0.2.
As for PNMS, the figure is no more than 0.2; as for KITR, no more than 0.2.
As for PINT, the figure is no more than 0.2.
The figure for TKKG is no more than 0.2; for VIPF it is no more than 0.2.
Take SRQK: the “one-hybrid fitness for binding NBS DNA” value was no more than 0.2.
As for PNEV, the figure is no more than 0.2.
The figure for LDKR is no more than 0.2; for WLSV it is no more than 0.2; for KFRR it is no more than 0.2.
As for AVFV, the figure is no more than 0.2.
For TPKH, the “one-hybrid fitness for binding NBS DNA” value was no more than 0.2.
As for QKWC, the figure is no more than 0.2; as for GTIW, no more than 0.2; as for KMKT, 0.27.
With QQFA, the “one-hybrid fitness for binding NBS DNA” value worked out at 0.201.
As for KFSR, the figure is no more than 0.2; as for LLTC, no more than 0.2; as for DMIG, no more than 0.2.
As for RMEV, the figure is no more than 0.2; as for AVTQ, no more than 0.2.
As for LCMC, the figure is no more than 0.2; as for GFAC, no more than 0.2; as for CLEV, no more than 0.2.
Consider RWWW, for which the “one-hybrid fitness for binding NBS DNA” value was no more than 0.2.
In the case of YGWY, the “one-hybrid fitness for binding NBS DNA” value was no more than 0.2.
As for CQAT, the figure is no more than 0.2; as for NGLI, no more than 0.2.
The figure for KYYN is no more than 0.2; for DASS it is no more than 0.2.
The figure for PTPL is no more than 0.2; for RSGT it is 0.425; for GVIT it is no more than 0.2.
In the case of LFKC, the “one-hybrid fitness for binding NBS DNA” value was no more than 0.2.
As for AMYT, the figure is no more than 0.2; as for GYPT, no more than 0.2; as for RVHL, no more than 0.2.
The figure for AFHM is no more than 0.2; for DEGF it is no more than 0.2; for WGKG it is no more than 0.2.
The figure for TPIG is no more than 0.2.
Turning to KRLA, the “one-hybrid fitness for binding NBS DNA” value was found to be 0.224.
On to TYER, for which the “one-hybrid fitness for binding NBS DNA” value was no more than 0.2.
The figure for YYLS is no more than 0.2; for NVNS it is no more than 0.2; for ALHM it is no more than 0.2.
As for TYYC, the figure is no more than 0.2; as for YPKP, no more than 0.2.
The figure for TVWA is no more than 0.2; for RLMH it is no more than 0.2.
With KYYS, the “one-hybrid fitness for binding NBS DNA” value was no more than 0.2.
The figure for RPDM is no more than 0.2; for CKAG it is no more than 0.2.
As to CDEF, the “one-hybrid fitness for binding NBS DNA” value was no more than 0.2.
The figure for DYNR is no more than 0.2; for REWN it is no more than 0.2.
As for YWER, the figure is no more than 0.2; as for RTAK, no more than 0.2.
For QKCN, the “one-hybrid fitness for binding NBS DNA” value is no more than 0.2.
As for CASW, the figure is no more than 0.2; as for DPKA, no more than 0.2.
As for PMVE, the figure is no more than 0.2.
The figure for QNAI is no more than 0.2; for TANC it is no more than 0.2.
LFSC: the “one-hybrid fitness for binding NBS DNA” value is no more than 0.2.
Consider HNGG, for which the “one-hybrid fitness for binding NBS DNA” value was no more than 0.2.
As to PPDM, the “one-hybrid fitness for binding NBS DNA” value was no more than 0.2.
As to RTKE, the “one-hybrid fitness for binding NBS DNA” value was no more than 0.2.
The figure for PNLE is no more than 0.2; for HTAS it is no more than 0.2.
For the variant HHSS, the “one-hybrid fitness for binding NBS DNA” value was no more than 0.2.
As for ACRT, the “one-hybrid fitness for binding NBS DNA” value was no more than 0.2.
The figure for AGGL is no more than 0.2; for QKHT it is 0.549; for SSGM it is no more than 0.2.
